# The supplement of paper PMC8728848
# The list shows a part of the results.
# B1: Pa IMPa (Pseudomonas aeruginosa), Q9I5W4 (protein)
# chain: MSLSTTAFPSLQGENMSRSPIPRHRALLAGFCLAGALSAQAATQEEILDAALVSGDSSQLTDSHLVALRLQQQVERIRQTRTQLLDGLYQNLSQAYDPGAASMWVLPANPDNTLPFLIGDKGRVLASLSLEAGGRGLAYGTNVLTQLSGTNAAHAPLLKRAVQWLVNGDPGAATAKDFKVSVVGVDKTAALNGLKSAGLQPADAACNALTDASCASTSKLLVLGNGASAASLSATVRARLQAGLPILFVHTNGWNQSSTGQQILAGLGLQEGPYGGNYWDKDRVPSSRTRTRSVELGGAYGQDPALVQQIVDGSWRTDYDWSKCTSYVGRTTCDDVPGLSDFSKRVDVLKGALDAYNQKAQNLFALPGTTSLRLWLLWADAVRQNIRYPMDKAADTARFQETFVADAIVGYVREAGAAQKELGSYAGQRQQSMPVSGSEETLTLTLPSAQGFTAIGRMAAPGKRLSIRIEDAGQASLAVGLNTQRIGSTRLWNTRQYDRPRFLKSPDIKLQANQSVALVSPYGGLLQLVYSGATPGQTVTVKVTGAASQPFLDIQPGEDSSQAIADFIQALDADKADWLEIRSGSVEVHAKVEKVRGSIDKDYGGDVQRFIRELNEVFIDDAYTLAGFAIPNQAKTPAIQQECAARGWDCDSETLHKLPGTQHINVDQYAQCGGGCSGNPYDQTWGLNPRGWGESHELGHNLQVNRLKVYGGRSGEISNQIFPLHKDWRVLREFGQNLDDTRVNYRNAYNLIVAGRAEADPLAGVYKRLWEDPGTYALNGERMAFYTQWVHYWADLKNDPLQGWDIWTLLYLHQRQVDKSDWDANKAALGYGTYAQRPGNSGDASSTDGNDNLLLGLSWLTQRDQRPTFALWGIRTSAAAQAQVAAYGFAEQPAFFYANNRTNEYSTVKLLDMSQGSPAWPFP
# Tests used:
# Assay in all cases: glycan array binding signal (z-score within array); higher = stronger binding
# Details in all cases: glycan notation: IUPAC condensed, linker removed
# [1] = target: Man(a1-2)Man(a1-3)[Man(a1-2)Man(a1-6)]Man(a1-6)[Man(a1-2)Man(a1-2)Man(a1-3)]Man
# Outline: (§1)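 The binding signal is a Z-score computed within each array. Data were drawn from 3228 arrays in the Consortium for Functional Glycomics database, restricted to those with a known protein sequence. Scores were averaged over arrays of the same protein sequence at different concentrations or buffers, and over linkers, and negative values can be taken as non-binding.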
# [2] = target: Man(a1-2)Man(a1-3)[Man(a1-2)Man(a1-6)]Man(a1-6)[Man(a1-2)Man(a1-2)Man(a1-3)]Man(b1-4)GlcNAc(b1-4)GlcNAc
# Outline: as §1
# [3] = target: Man(a1-2)Man(a1-3)[Man(a1-6)]Man(a1-6)[Man(a1-2)Man(a1-3)]Man(b1-4)GlcNAc(b1-4)GlcNAc
# Outline: as §1
# [4] = target: Man(a1-2)Man(a1-6)[Man(a1-3)]Man(a1-6)[Man(a1-2)Man(a1-2)Man(a1-3)]Man
# Outline: as §1
# [5] = target: Man(a1-2)Man(a1-6)[Man(a1-3)]Man(a1-6)[Man(a1-2)Man(a1-2)Man(a1-3)]Man(b1-4)GlcNAc(b1-4)GlcNAc
# Outline: as §1
# [6] = target: Man(a1-3)[Man(a1-6)]Man
# Outline: as §1
# [7] = target: Man(a1-3)[Man(a1-6)]Man(a1-6)[Man(a1-2)Man(a1-3)]Man(b1-4)GlcNAc(b1-4)GlcNAc
# Outline: as §1
# [8] = target: Man(a1-3)[Man(a1-6)]Man(a1-6)[Man(a1-3)]Man
# Outline: as §1
# [9] = target: Man(a1-3)[Man(a1-6)]Man(a1-6)[Man(a1-3)]Man(b1-4)GlcNAc(b1-4)GlcNAc
# Outline: as §1
# [10] = target: Man(a1-3)[Man(a1-6)]Man(b1-4)GlcNAc(b1-4)GlcNAc
# Outline: as §1
# [11] = target: Man(a1-3)[Man(a1-6)]Man(b1-4)GlcNAc(b1-4)[Fuc(a1-6)]GlcNAc
# Outline: as §1
# [12] = target: Man(a1-6)Man
# Outline: as §1
# [13] = target: Man(b1-4)GlcNAc
# Outline: as §1
# [14] = target: MurNAc(b1-4)GlcNAc
# Outline: as §1
# [15] = target: Neu5Ac(a2-3)Gal
# Outline: as §1
# [16] = target: Neu5Ac(a2-3)Gal(b1-3)GalNAc
# Outline: as §1
# [17] = target: Neu5Ac(a2-3)Gal(b1-3)GalNAc(b1-3)Gal(a1-4)Gal(b1-4)Glc
# Outline: as §1
# [18] = target: Neu5Ac(a2-3)Gal(b1-3)GalNAc(b1-4)Gal(b1-4)Glc
# Outline: as §1
# [19] = target: Neu5Ac(a2-3)Gal(b1-3)GalNAc(b1-4)[Neu5Ac(a2-3)]Gal(b1-4)Glc
# Outline: as §1
# [20] = target: Neu5Ac(a2-3)Gal(b1-3)GalNAc(b1-4)[Neu5Ac(a2-8)Neu5Ac(a2-3)]Gal(b1-4)Glc
# Outline: as §1
# [21] = target: Neu5Ac(a2-3)Gal(b1-3)GalNAc6S
# Outline: as §1
# [22] = target: Neu5Ac(a2-3)Gal(b1-3)GlcNAc
# Outline: as §1
# [23] = target: Neu5Ac(a2-3)Gal(b1-3)GlcNAc(b1-2)Man
# Outline: as §1
# [24] = target: Neu5Ac(a2-3)Gal(b1-3)GlcNAc(b1-2)Man(a1-3)[GlcNAc(b1-4)][Neu5Ac(a2-3)Gal(b1-3)GlcNAc(b1-2)Man(a1-6)]Man(b1-4)GlcNAc(b1-4)GlcNAc
# Outline: as §1
# [25] = target: Neu5Ac(a2-3)Gal(b1-3)GlcNAc(b1-2)Man(a1-3)[Neu5Ac(a2-3)Gal(b1-3)GlcNAc(b1-2)Man(a1-6)]Man(b1-4)GlcNAc(b1-4)GlcNAc
# Outline: as §1
# [26] = target: Neu5Ac(a2-3)Gal(b1-3)GlcNAc(b1-2)[Neu5Ac(a2-3)Gal(b1-3)GlcNAc(b1-4)]Man(a1-6)[Neu5Ac(a2-3)Gal(b1-3)GlcNAc(b1-2)Man(a1-3)]Man(b1-4)GlcNAc(b1-4)GlcNAc
# Outline: as §1
# [27] = target: Neu5Ac(a2-3)Gal(b1-3)GlcNAc(b1-3)Gal(b1-3)GlcNAc
# Outline: as §1
# [28] = target: Neu5Ac(a2-3)Gal(b1-3)GlcNAc(b1-3)Gal(b1-4)GlcNAc
# Outline: as §1
# [29] = target: Neu5Ac(a2-3)Gal(b1-3)GlcNAc(b1-3)GalNAc
# Outline: as §1
# [30] = target: Neu5Ac(a2-3)Gal(b1-3)GlcNAc(b1-6)GalNAc
# Outline: as §1
binder,measurement,setting,value
B1,glycan array binding signal (z-score),[1],-0.403
same,glycan array binding signal (z-score),[2],-0.465
same,glycan array binding signal (z-score),[3],-0.157
same,glycan array binding signal (z-score),[4],-0.309
same,glycan array binding signal (z-score),[5],-0.415
same,glycan array binding signal (z-score),[6],0.005
same,glycan array binding signal (z-score),[7],0.094
same,glycan array binding signal (z-score),[8],-0.432
same,glycan array binding signal (z-score),[9],0.57
same,glycan array binding signal (z-score),[10],-0.124
same,glycan array binding signal (z-score),[11],0.916
same,glycan array binding signal (z-score),[12],-0.125
same,glycan array binding signal (z-score),[13],-0.16
same,glycan array binding signal (z-score),[14],0.11
same,glycan array binding signal (z-score),[15],-0.049
same,glycan array binding signal (z-score),[16],0.09
same,glycan array binding signal (z-score),[17],-0.06
same,glycan array binding signal (z-score),[18],-0.437
same,glycan array binding signal (z-score),[19],1.23
same,glycan array binding signal (z-score),[20],0.025
same,glycan array binding signal (z-score),[21],-0.297
same,glycan array binding signal (z-score),[22],-0.313
same,glycan array binding signal (z-score),[23],-0.547
same,glycan array binding signal (z-score),[24],0.857
same,glycan array binding signal (z-score),[25],-0.398
same,glycan array binding signal (z-score),[26],0.553
same,glycan array binding signal (z-score),[27],-0.386
same,glycan array binding signal (z-score),[28],0.474
same,glycan array binding signal (z-score),[29],0.273
same,glycan array binding signal (z-score),[30],-0.218
